From the supplement of paper PMC4604168 (melanoma cell lines)
Some of the results follow. Many values rest on one well or one pass, so single values are uncertain.

System: SkMel28
Assay: cell count relative to DMSO control; melanoma cells; higher = more viable cells
Conditions: library dose: low library concentration; 72 h
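Further: cell number obtained by counting DAPI-stained nuclei in high-throughput microscope images with image analysis software, screen run in 1,536-well plates.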

Row | Compound | cell count [%]
1 | C[C@]1(O)C[C@@H](c2nc(-c3ccc4ccc(-c5ccccc5)nc4c3)c3c(N)nccn32)C1 + CN(NC(=O)CC(=O)NN(C)C(=S)c1ccccc1)C(=S)c1ccccc1 [STA4783] (first compound 0.4 µM, partner dose 0.006 µM) | 103
2 | C[C@]1(O)C[C@@H](c2nc(-c3ccc4ccc(-c5ccccc5)nc4c3)c3c(N)nccn32)C1 + NCC(=O)Nc1ccc(-n2nc(C(F)(F)F)cc2-c2ccc3c(ccc4ccccc43)c2)cc1 [OSU03012] (first compound 0.4 µM, partner dose 1 µM) | 96.8
3 | CCN(CC)CCNC(=O)c1c(C)[nH]c(/C=C2\C(=O)Nc3ccc(F)cc32)c1C [sunitinib] + Oc1nc(-c2ccc(C(F)(F)F)cc2)nc2c1CSCC2 [XAV939] (first compound 0.4 µM, partner dose 2 µM) | 77.1
4 | C[C@]1(O)C[C@@H](c2nc(-c3ccc4ccc(-c5ccccc5)nc4c3)c3c(N)nccn32)C1 + CC(C)CCN1c2nc(Nc3cc(F)c(O)c(F)c3)ncc2N(C)C(=O)C1C [BID1870] (first compound 0.4 µM, partner dose 0.2 µM) | 80.2
5 | CCN(CC)CCNC(=O)c1c(C)[nH]c(/C=C2\C(=O)Nc3ccc(F)cc32)c1C [sunitinib] + COc1cc(N2CCC(N3CCN(C)CC3)CC2)ccc1Nc1ncc(Cl)c(Nc2ccccc2S(=O)(=O)C(C)C)n1 [NVP-TAE684] (first compound 0.4 µM, partner dose 0.08 µM) | 95.2
6 | CCN(CC)CCNC(=O)c1c(C)[nH]c(/C=C2\C(=O)Nc3ccc(F)cc32)c1C [sunitinib] + CCc1ccc(CCOc2ccc(CC3SC(=O)NC3=O)cc2)nc1 [pioglitazone] (first compound 0.4 µM, partner dose 2 µM) | 99.3
7 | C[C@]1(O)C[C@@H](c2nc(-c3ccc4ccc(-c5ccccc5)nc4c3)c3c(N)nccn32)C1 + NC(=O)Nc1cc(-c2cccc(F)c2)sc1C(=O)N[C@H]1CCCNC1 [AZD7762] (first compound 0.4 µM, partner dose 0.02 µM) | 86.7
8 | C[C@]1(O)C[C@@H](c2nc(-c3ccc4ccc(-c5ccccc5)nc4c3)c3c(N)nccn32)C1 + c1cc(-c2cnn3cc(-c4ccc(OCCN5CCCCC5)cc4)cnc23)ccn1 [Dorsomorphin] (first compound 0.4 µM, partner dose 0.4 µM) | 89.1
9 | COc1cc([C@@H]2c3cc4c(cc3[C@@H](O[C@@H]3O[C@@H]5CO[C@@H](C)O[C@H]5[C@H](O)[C@H]3O)[C@H]3COC(=O)[C@H]23)OCO4)cc(OC)c1O [etoposide] + COc1cc(N2CCC(N3CCN(C)CC3)CC2)ccc1Nc1ncc(Cl)c(Nc2ccccc2S(=O)(=O)C(C)C)n1 [NVP-TAE684] (first compound 0.02 µM, partner dose 0.08 µM) | 96.6
10 | CCN(CC)CCNC(=O)c1c(C)[nH]c(/C=C2\C(=O)Nc3ccc(F)cc32)c1C [sunitinib] + CCCCCCCCCCCC1=C(O)C(=O)C=C(O)C1=O [Embelin] (first compound 0.4 µM, partner dose 1.2 µM) | 103
11 | Cn1cnc2c(F)c(Nc3ccc(Br)cc3Cl)c(C(=O)NOCCO)cc21 [selumetinib] + CO[C@@H]1[C@H](N(C)C(=O)c2ccccc2)C[C@H]2O[C@]1(C)n1c3ccccc3c3c4c(c5c6ccccc6n2c5c31)C(=O)NC4 [Midostaurin] (first compound 0.015 µM, partner dose 0.08 µM) | 91.8
12 | COc1cc([C@@H]2c3cc4c(cc3[C@@H](O[C@@H]3O[C@@H]5CO[C@@H](C)O[C@H]5[C@H](O)[C@H]3O)[C@H]3COC(=O)[C@H]23)OCO4)cc(OC)c1O [etoposide] + NC(=O)Nc1cc(-c2cccc(F)c2)sc1C(=O)N[C@H]1CCCNC1 [AZD7762] (first compound 0.02 µM, partner dose 0.02 µM) | 120
13 | Cn1cnc2c(F)c(Nc3ccc(Br)cc3Cl)c(C(=O)NOCCO)cc21 [selumetinib] + Oc1nc(-c2ccc(C(F)(F)F)cc2)nc2c1CSCC2 [XAV939] (first compound 0.015 µM, partner dose 2 µM) | 82.6
14 | CCN(CC)CCNC(=O)c1c(C)[nH]c(/C=C2\C(=O)Nc3ccc(F)cc32)c1C [sunitinib] + NC(=O)Nc1cc(-c2cccc(F)c2)sc1C(=O)N[C@H]1CCCNC1 [AZD7762] (first compound 0.4 µM, partner dose 0.02 µM) | 89.1
15 | C[C@]1(O)C[C@@H](c2nc(-c3ccc4ccc(-c5ccccc5)nc4c3)c3c(N)nccn32)C1 + O=S(=O)(c1ccccc1)N(CC(F)(F)F)c1ccc(C(O)(C(F)(F)F)C(F)(F)F)cc1 [T0901317] (first compound 0.4 µM, partner dose 1.4 µM) | 71.3
16 | CCN(CC)CCNC(=O)c1c(C)[nH]c(/C=C2\C(=O)Nc3ccc(F)cc32)c1C [sunitinib] + COc1cc(Nc2ncc(F)c(Nc3ccc4c(n3)NC(=O)C(C)(C)O4)n2)cc(OC)c1OC [Tamatinib] (first compound 0.4 µM, partner dose 0.4 µM) | 90.6
17 | C[C@]1(O)C[C@@H](c2nc(-c3ccc4ccc(-c5ccccc5)nc4c3)c3c(N)nccn32)C1 + COc1cc2c(Oc3ccc4[nH]c(C)cc4c3F)ncnc2cc1OCCCN1CCCC1 [cediranib] (first compound 0.4 µM, partner dose 0.4 µM) | 92.9
18 | C[C@]1(O)C[C@@H](c2nc(-c3ccc4ccc(-c5ccccc5)nc4c3)c3c(N)nccn32)C1 + COc1cc2ncnc(Nc3ccc(Oc4ccccc4)cc3)c2cc1OC [SrcI1] (first compound 0.4 µM, partner dose 2 µM) | 88
19 | CCN(CC)CCNC(=O)c1c(C)[nH]c(/C=C2\C(=O)Nc3ccc(F)cc32)c1C [sunitinib] + OCCn1cc(-c2cnc3nnn(Cc4ccc5ncccc5c4)c3n2)cn1 [PF04217903] (first compound 0.4 µM, partner dose 1 µM) | 94.9
20 | Cn1cnc2c(F)c(Nc3ccc(Br)cc3Cl)c(C(=O)NOCCO)cc21 [selumetinib] + N#Cc1c(O)c2c(-c3ccc(-c4ccccc4O)cc3)csc2[nH]c1=O [A769662] (first compound 0.015 µM, partner dose 2 µM) | 85
21 | Cn1cnc2c(F)c(Nc3ccc(Br)cc3Cl)c(C(=O)NOCCO)cc21 [selumetinib] + c1cc(-c2cnn3cc(-c4ccc(OCCN5CCCCC5)cc4)cnc23)ccn1 [Dorsomorphin] (first compound 0.015 µM, partner dose 0.4 µM) | 86.2
22 | CCN(CC)CCNC(=O)c1c(C)[nH]c(/C=C2\C(=O)Nc3ccc(F)cc32)c1C [sunitinib] + CC(C)CCN1c2nc(Nc3cc(F)c(O)c(F)c3)ncc2N(C)C(=O)C1C [BID1870] (first compound 0.4 µM, partner dose 0.2 µM) | 91.3
23 | COc1cc([C@@H]2c3cc4c(cc3[C@@H](O[C@@H]3O[C@@H]5CO[C@@H](C)O[C@H]5[C@H](O)[C@H]3O)[C@H]3COC(=O)[C@H]23)OCO4)cc(OC)c1O [etoposide] + COc1ccc(COc2ccc(Cc3cnc(N)nc3N)cc2OC)cc1 [GW2580] (first compound 0.02 µM, partner dose 1 µM) | 102
24 | Cn1cnc2c(F)c(Nc3ccc(Br)cc3Cl)c(C(=O)NOCCO)cc21 [selumetinib] + NCC(=O)Nc1ccc(-n2nc(C(F)(F)F)cc2-c2ccc3c(ccc4ccccc43)c2)cc1 [OSU03012] (first compound 0.015 µM, partner dose 1 µM) | 85
25 | COc1cc([C@@H]2c3cc4c(cc3[C@@H](O[C@@H]3O[C@@H]5CO[C@@H](C)O[C@H]5[C@H](O)[C@H]3O)[C@H]3COC(=O)[C@H]23)OCO4)cc(OC)c1O [etoposide] + O=C(CCCCCCC(=O)Nc1ccccc1)NO [vorinostat] (first compound 0.02 µM, partner dose 0.08 µM) | 69.6
26 | C[C@]1(O)C[C@@H](c2nc(-c3ccc4ccc(-c5ccccc5)nc4c3)c3c(N)nccn32)C1 + CO[C@@H]1[C@H](N(C)C(=O)c2ccccc2)C[C@H]2O[C@]1(C)n1c3ccccc3c3c4c(c5c6ccccc6n2c5c31)C(=O)NC4 [Midostaurin] (first compound 0.4 µM, partner dose 0.08 µM) | 93.5
27 | CCN(CC)CCNC(=O)c1c(C)[nH]c(/C=C2\C(=O)Nc3ccc(F)cc32)c1C [sunitinib] + C[C@@H]1CCN(C(=O)CC#N)C[C@@H]1N(C)c1ncnc2[nH]ccc12 [CP690550] (first compound 0.4 µM, partner dose 1 µM) | 93.7
28 | Cn1cnc2c(F)c(Nc3ccc(Br)cc3Cl)c(C(=O)NOCCO)cc21 [selumetinib] + CCc1ccc(CCOc2ccc(CC3SC(=O)NC3=O)cc2)nc1 [pioglitazone] (first compound 0.015 µM, partner dose 2 µM) | 93.8
29 | C[C@]1(O)C[C@@H](c2nc(-c3ccc4ccc(-c5ccccc5)nc4c3)c3c(N)nccn32)C1 + CCN(CC)CCCCNc1ncc2cc(-c3cc(OC)cc(OC)c3)c(NC(=O)NC(C)(C)C)nc2n1 [PD173074] (first compound 0.4 µM, partner dose 0.1 µM) | 98.3
